# From PubChem BioAssay AID485344 (National Center for Advancing Translational Sciences (NCATS), 2010)
# The campaign covered roughly 340,000 compounds. About 6,900 (2%) were called active. Rule as the data show it: active = inhibition above about 30%; inactive = below that, where a call was filed. The entries are a selection whose mix differs from that of the whole data set. Entries without a call were filed so in the source.
# Biological target: D(2) dopamine receptor (Homo sapiens) (UniProt P14416)
# Chain of UniProt P14416 (P14416 whole entry, looked up): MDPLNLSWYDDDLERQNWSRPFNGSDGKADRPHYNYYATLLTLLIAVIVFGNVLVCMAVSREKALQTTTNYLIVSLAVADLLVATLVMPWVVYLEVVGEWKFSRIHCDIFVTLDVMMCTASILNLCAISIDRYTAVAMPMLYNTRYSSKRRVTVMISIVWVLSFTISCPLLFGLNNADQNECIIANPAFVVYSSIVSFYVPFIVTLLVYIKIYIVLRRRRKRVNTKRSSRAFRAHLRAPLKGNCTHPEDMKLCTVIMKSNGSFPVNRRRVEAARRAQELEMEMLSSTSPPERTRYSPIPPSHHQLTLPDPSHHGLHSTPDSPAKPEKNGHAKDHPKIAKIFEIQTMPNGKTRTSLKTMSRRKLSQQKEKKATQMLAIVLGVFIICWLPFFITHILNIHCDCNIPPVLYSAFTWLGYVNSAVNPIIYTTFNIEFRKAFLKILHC
# Test: HTS Assay for Allosteric Antagonists of the Human D2 Dopamine Receptor: Primary Screen for Antagonists; also: 0% is about no effect
# Settings: HEK293 TREx D2 cells, calcium flux, dopamine EC80; at 10 µM; stronger effect = higher value
# Procedure, shortened: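 Calcium mobilization kinetics were recorded at 1 s intervals in tetracycline-induced HEK293 T-REx D2 cells, first for 180 s after compound addition and then 180 s after EC80 dopamine.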
row,SMILES,inhibition
1,Cc1ccc(-c2nnc(Nc3ccc(Br)cc3)c3ccccc23)cc1S(=O)(=O)N1CCN(C)CC1,-26.7%
2,COc1ccc(CC(=O)NC2CC(=O)N(c3cccc(F)c3)C2)cc1 (stereo unspecified),-6.18%
3,COc1ccc(CCNC(=O)Cc2c(C)c3c(cc(C)c4c(C)coc43)oc2=O)cc1OC,-5.97%
4,Cc1ccc(OCC(=O)Nc2ccc(OCc3cc(=O)n4cccc(C)c4n3)cc2)cc1C,10%
5,CCN(C(=O)C(=O)Nc1ccc2nc3n(c(=O)c2c1)CCCCC3)c1ccc(F)cc1,3.77%
6,COc1ccc2c(CNCc3ccc(C)o3)c(C(=O)O)n(Cc3ccccc3C)c2c1,-0.977%
7,CCN(c1ccccc1)C(CNS(=O)(=O)c1ccccc1)c1ccccc1 (stereo unspecified),11.2%
8,COc1ccc(CCNC(=O)c2ccc3c(c2)CCN3S(C)(=O)=O)cc1,-19.1%
9,Cc1c(C(=O)N(Cc2ccc(N(C)C)cc2)C2CCS(=O)(=O)C2)oc2ccccc12 (stereo unspecified),13.8%
10,COc1cc(C(=O)CC2(O)C(=O)N(Cc3ccccc3Cl)c3ccccc32)cc(OC)c1OC (stereo unspecified),-4.11%
11,Cc1ccc2sc(N(Cc3cccnc3)C(=O)CCOc3ccccc3)nc2c1C,23.3%
12,Clc1ccc(OCCOCCN2CCc3ccccc3C2)c(Cl)c1,active: 64.4%
13,COc1ccc(OC)c(C2NC(=O)NC(C)=C2C(=O)Nc2cc(C)cc(C)c2)c1 (stereo unspecified),-3.32%
14,O=C(c1ccc2c(c1)N(Cc1ccccc1)C(=O)c1ccccc1S2(=O)=O)N1CCN(c2ccccc2)CC1,-2.22%
15,C=CCNC(=S)NNC(=O)C(CCC(C)C)CC(C)O (stereo unspecified),active: 45.4%
16,CCOC(=O)C1(C)C=C(Nc2ccc(Br)cc2)C(=O)N1c1ccccc1 (stereo unspecified),28.2%
17,CCn1c(=NC(=O)c2ccc3c(c2)OCCO3)sc2c(C)ccc(OC)c21,-8.36%
18,Cc1ccc(NC(=O)CSc2nc(C)c(Cc3ccccc3)c(=O)[nH]2)cc1C,0.975%
19,Cc1ccc(C(=O)c2oc3ccccc3c2NC(=O)Cc2coc3cc(C)ccc23)cc1,2.03%
20,COc1ccc(Cn2nnc3c(=O)[nH]c(C4CCCN(C(=O)c5ccc(C)cc5)C4)nc32)cc1 (stereo unspecified),-3.55%
21,COc1ccc(CCNC(=O)Cn2c(=O)n(-c3ccc(C)c(C)c3)c(=O)c3c(C)c(C)sc32)cc1OC,17.1%

row,SMILES,inhibition
1,CCCCc1ccc(NC(=O)Cn2nnc3sc4c(c3c2=O)CCC(C)C4)cc1 (stereo unspecified),22.4%
2,CCc1ccccc1NC(=O)Cn1ccn(-c2cc(C)cc(C)c2)c(=O)c1=O,-27.4%
3,COc1ccc(NC(=O)c2ccc3oc(=O)c(S(=O)(=O)c4ccc(C)cc4)cc3c2)cc1OC,1.48%
4,Cc1nn(S(=O)(=O)c2ccccc2)c(C)c1S(=O)(=O)N1CCC(C)CC1,-17.4%
5,COc1ccc(OC)c(C(=O)c2c(N)c(-c3nc(-c4ccc(C)c(C)c4)cs3)c3ccccn23)c1,-0.833%
6,Clc1cccc(CSc2nncn3c2cc2sccc23)c1,-11.4%
7,Cc1ccccc1-c1nc(CS(=O)CC(=O)N2CCN(c3cc(Cl)ccc3C)CC2)c(C)o1 (stereo unspecified),0.552%
8,CCC(=O)N1c2ccccc2CC1C(=O)NCc1cccc(C)c1 (stereo unspecified),-9.27%
9,CCN(CC)CCCNC(=O)Cn1nc(C)n2c(cc3sccc32)c1=O,8.3%
10,COc1ccc(-c2noc(-c3ccc(N4CCN(c5ccc(OC)cc5)CC4)c([N+](=O)[O-])c3)n2)cc1,-10%
11,COc1cccc(N2CCN(C(=O)c3cc4c(=O)n(Cc5ccccc5)ccc4nc3C)CC2)c1,13.3%
12,Cc1cccn2c(=O)c(C(=O)NCc3ccccc3Cl)c(O)nc12,5.23%
13,COc1cc(C)ccc1OCCCn1c(-c2ccc(Cl)cc2)nc2ccccc2c1=O,-8.45%
14,CC(C)S(=O)(=O)c1oc(-c2ccc(F)cc2)nc1S(=O)(=O)c1ccccc1,-5.69%
15,CN1CCN(c2oc(/C=C/c3ccc(F)cc3)nc2C#N)CC1,-14.5%
16,Cc1cccc(-n2c(SCc3nc(-c4ccccc4C)no3)nnc2-c2ccccc2)c1,12.3%
17,CCOC(=O)c1ccccc1NS(=O)(=O)c1ccc(N2CCCCS2(=O)=O)cc1,-11.8%
18,COc1cc(NC(=O)c2nn(-c3ccc(C)cc3)c(=O)c3c2c2ccccc2n3C)cc(OC)c1OC,1.19%
19,CCc1nn(CC(=O)NC(C)CC)c(=O)c2cc3c(OC)cccc3n12 (stereo unspecified),-11.7%
20,Cc1cc(C(F)(F)F)nn1-c1nc(-c2ccccc2)cc(C(F)(F)F)n1,-13%
21,CCOC(=O)c1ccc(NC(=O)CC2C(=O)N(c3ccc(C)cc3)C(=O)N2C2CCCCC2)cc1 (stereo unspecified),3.19%

row,SMILES,inhibition
1,Cc1cc(=O)n(CC(=O)Nc2ccc([N+](=O)[O-])cc2)c(-n2nc(C)cc2C)n1,17.4%
2,Cc1[nH]c2ccccc2c1C(c1ccccc1)c1cccs1 (stereo unspecified),16.8%
3,Cc1ccccc1NC(=O)Cn1c(=O)n(CCc2ccccc2)c(=O)c2sc3ccccc3c21,8.79%
4,COc1ccc(CCN2C(=O)c3[nH]nc(-c4ccccc4O)c3C2c2cccc(OC)c2)cc1 (stereo unspecified),11.3%
5,COC(=O)c1c(NC(=O)Cc2coc3ccc(C)cc23)sc2c1CCC2,-5.58%
6,Cc1cccc(NC(=O)c2sc3nc4c(cc3c2N)CCCCCC4)c1C,17.5%
7,CC(C)C1C(=O)Nc2ccc(S(=O)(=O)NCc3ccc(Cl)cc3)cc21 (stereo unspecified),0.384%
8,COc1ccc(C2C(C(N)=O)=C(C)Nc3nc(CCCO)nn32)cc1 (stereo unspecified),-18.8%
9,COc1ccc(/C=N/NC(=O)c2sccc2OCc2ccc(F)cc2)cc1OC,active: 36.7%
10,Cc1ccc(NC(=O)CSc2c3c(nc4ccccc24)CCCC3)cc1F,3.28%
11,O=C(c1ccccc1Cl)N(Cc1ccco1)Cc1ccco1,-4.64%
12,CN(Cc1ccccc1)c1ccc(-c2nc(-c3ccco3)no2)cc1[N+](=O)[O-],28.4%
13,CC(=O)c1cccc(NC(=O)c2c(-c3ccccc3)c(-c3ccccc3)nn(C)c2=O)c1,1.53%
14,Cc1ccccc1Nc1c(-c2cccc(N(C)C)c2)nc2ccc(Br)cn12,5.44%
15,Cc1cc(F)ccc1-n1nnc(C(N)=O)c1C,10.4%
16,Cc1cccc(C(=O)Nc2cccc(C(=O)OCc3cc(=O)n4nc(C(C)C)sc4n3)c2)c1,9.82%
17,OC(COC(c1ccccc1)c1ccccc1)CN1CCN(c2ccccn2)CC1 (stereo unspecified),active: 77.8%
18,CC(NC(=O)c1ccc(NC(=O)c2nsc3ccccc23)cc1)c1ccccc1 (stereo unspecified),18.2%
19,COc1ccc2c(C(=O)c3ccc(C)cc3)n(Cc3ccc(C(N)=O)cc3)[n+]([O-])c2c1,active: 60.4%
